# Experimental data reported in PubChem BioAssay AID2147 (National Center for Advancing Translational Sciences (NCATS), 2009).
# Out of some 230,000 compounds screened, about 3,600 (1.6%) were called active. The inconclusive results got no clear call from the source; some entries with a clear call stand among them for comparison. Calls come from the whole dose curve; as a rule, active = well fitted inhibition curve with a large enough effect (not every such curve was filed as active); inconclusive = small, poorly fitted or top-dose-only effect, or another doubt; inactive = no such curve, though single readings can be large or run the other way. Potencies of inconclusive entries are doubtful fits and often do not repeat.
# Target: Lysine-specific demethylase 4E (Homo sapiens) (UniProt B2RXH2)
# UniProt B2RXH2, sequence (B2RXH2 whole entry, looked up, the tested form may be a part): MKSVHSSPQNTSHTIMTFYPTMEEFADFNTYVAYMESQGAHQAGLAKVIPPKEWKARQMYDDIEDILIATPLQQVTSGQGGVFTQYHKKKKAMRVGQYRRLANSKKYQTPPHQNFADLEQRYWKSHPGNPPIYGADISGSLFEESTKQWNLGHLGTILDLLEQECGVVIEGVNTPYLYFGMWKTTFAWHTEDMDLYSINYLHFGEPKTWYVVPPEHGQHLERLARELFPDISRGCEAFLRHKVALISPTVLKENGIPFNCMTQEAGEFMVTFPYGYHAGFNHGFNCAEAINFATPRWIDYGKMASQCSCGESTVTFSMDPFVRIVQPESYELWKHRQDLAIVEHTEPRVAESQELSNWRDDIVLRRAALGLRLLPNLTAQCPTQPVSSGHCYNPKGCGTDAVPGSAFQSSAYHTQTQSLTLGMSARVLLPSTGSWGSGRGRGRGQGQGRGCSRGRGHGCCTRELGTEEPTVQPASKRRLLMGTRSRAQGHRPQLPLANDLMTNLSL
# Test: qHTS Assay for Inhibitors of Human Jumonji Domain Containing 2E (JMJD2E)
# Conditions: JMJD2E catalytic domain, FDH-coupled NADH fluorescence (FDH is formaldehyde dehydrogenase); series mostly up to 57.1 µM
# Note: nearly all actives have a fitted effect of over 50% in size.
# Potency is the fitted concentration of half-maximal effect; tags give direction and shape of the fitted curve.
row,SMILES,Potency
1,COc1ccc(CN(C)C(=O)c2cnc(OC)cc2C(F)(F)F)c(OC)c1,inactive
2,CCN(CC)c1ccc(/C=N/OC(C)C(=O)Nc2ccc(C)cc2)cc1 (configuration not stated),"inconclusive: 35.5 µM [inhibitor, single point]"
3,CCOC(=O)c1ccc(NS(=O)(=O)c2ccc(Cl)nc2)cc1,"inconclusive: 28.2 µM [inhibitor, single point]"
4,C/C(CC(=O)NCc1ccco1)=N\NC(=O)CC#N,inactive
5,COC(=O)c1c(-c2ccc(C)cc2)csc1NC(=O)c1c(-c2ccccc2)noc1C,"inconclusive: 35.5 µM [inhibitor, single point]"
6,CCOC(=O)c1nnn(-c2ccccc2)c1C,inactive
7,CCCn1c(-c2ccc(F)cc2)nc2c(NCCN3CCCCC3)nc(C)nc21,"inconclusive: 25.1 µM [inhibitor, partial curve]"
8,CC1CN(S(=O)(=O)c2cccc(-c3cn4cccnc4n3)c2)CC(C)O1 (configuration not stated),"inconclusive: 31.6 µM [inhibitor, partial curve]"
9,Cc1c(/C=C/C(=O)c2ccc(C(C)C)cc2)cnn1C,"inconclusive: 39.8 µM [inhibitor, single point]"
10,COC(=O)c1ccc(C2Nc3cccc4cccc(c34)N2)cc1,active: 8.91 µM
11,COc1ccccc1NC(=O)CNc1ccc(F)c(Cl)c1,"inconclusive: 39.8 µM [inhibitor, single point]"
12,COc1cccc(C2CC(c3c(-c4ccccc4)c4cc(Cl)ccc4[nH]c3=O)=NN2S(C)(=O)=O)c1OC (configuration not stated),"inconclusive: 25.1 µM [inhibitor, single point]"
13,CCCCC(c1nnnn1CC1CCCO1)N1CCN(Cc2ccccc2)CC1 (configuration not stated),inactive
14,CC1(C)Cc2nc3sc4c(SCC(=O)NCc5ccco5)ncnc4c3cc2CO1,"inconclusive: 25.1 µM [inhibitor, single point]"
15,Cc1[nH]c(=O)nc2c1CCC2,"inconclusive: 28.2 µM [inhibitor, single point]"
16,CCn1c(SC(C)C)nnc1-c1cc(-c2ccccc2)sc1N,"inconclusive: 35.5 µM [inhibitor, single point]"
17,Cc1ncsc1C(=O)O,"inconclusive: 6.31 µM [inhibitor, single point]"
18,CCCc1cc(=O)oc2c(C)c(O)c(CN3CCCCC3)cc12,"inconclusive: 4.47 µM [inhibitor, full curve]"
19,CC(C)OCCCNC(=S)Nc1ccc(S(N)(=O)=O)cc1,inactive
20,O=S(=O)(NCc1csc(-c2cccs2)n1)c1cccs1,"inconclusive: 39.8 µM [inhibitor, single point]"
21,OCc1nc2nc(Cl)c(Cl)nc2[nH]1,"inconclusive: 28.2 µM [inhibitor, partial curve]"
22,Cc1ccccc1OCc1nc2ccccc2c(=O)n1/N=C/c1cn[nH]c1-c1ccc(Br)cc1,inactive
23,CCOC(=O)/C(C#N)=C1/C=CN(C)C=N1,inactive
24,C=CCN(CC=C)C(=O)COC(=O)c1n[nH]c2ccccc12,"inconclusive: 31.6 µM [inhibitor, partial curve]"

row,SMILES,Potency
1,COc1ccc(CNCc2cccc(Oc3ccccc3)c2)cc1,"inconclusive: 39.8 µM [inhibitor, single point]"
2,CC(=O)c1c(C)[nH]c(C(=O)CN2C(=O)NC(CCc3ccccc3)C2=O)c1C (configuration not stated),inactive
3,Cc1csc(NC(=O)c2cncc(Br)c2)n1,"inconclusive: 39.8 µM [inhibitor, single point]"
4,O=C(Nc1cccc(Cl)c1)N1CCCC1,inactive
5,CN1CCCN(C2C3CC4CC(C3)CC2C4)CC1 (configuration not stated),"inconclusive: 22.4 µM [inhibitor, single point]"
6,Nc1nc[nH]c(=O)c1N=Cc1ccccc1,"inconclusive: 31.6 µM [inhibitor, partial curve]"
7,CCN(CC)c1ccc(C2C(C(=O)OCCOC(C)C)=C(C)NC3=C2C(=O)CCC3)cc1 (configuration not stated),"inconclusive: 22.4 µM [inhibitor, partial curve]"
8,CCCCC(=O)Nc1ccc(C(=O)N2CCN(C)CC2)cc1,inactive
9,CC1(C)CC2CC(C)(CN2CC(O)COc2ccccc2)C1 (configuration not stated),"inconclusive: 35.5 µM [inhibitor, single point]"
10,CCc1c(C)sc(NC(=O)OC)c1C(N)=O,inactive
11,CCN(CC)CCCn1c(-c2ccccc2)nc2c(N3CCOCC3)nc(C)nc21,"inconclusive: 28.2 µM [inhibitor, partial curve]"
12,Cn1c(=O)[nH]c(=O)c2cc(C(=O)c3cc(F)ccc3O)cnc21,"inconclusive: 28.2 µM [inhibitor, single point]"
13,Cc1nc(SCC(=O)Nc2nc3ccccc3s2)c(C#N)c(C)c1C,"inconclusive: 0.501 µM [inhibitor, partial curve, poor fit]"
14,COc1cc2c(cc1OC)C(c1cc3cc4c(cc3[nH]c1=O)OCO4)N(C(=O)C1CC1)CC2 (configuration not stated),"inconclusive: 25.1 µM [inhibitor, partial curve]"
15,COc1cccc(CC(Cc2nc3ccccc3[nH]2)c2nc3ccccc3[nH]2)c1 (configuration not stated),inactive
16,CSc1ccc(-c2cc(=O)c3ccccc3o2)cc1,"inconclusive: 25.1 µM [inhibitor, partial curve]"
17,COc1cc2[nH]c(=O)n3nc(-c4ccccc4)nc3c2cc1OC,"inconclusive: 7.08 µM [inhibitor, partial curve]"
18,CCCCC(c1nnnn1CS(=O)(=O)c1ccc(C)cc1)N1CCN(C)CC1 (configuration not stated),inactive
19,Cc1ccnc(NC(c2ccsc2)c2ccc3ccc(C)nc3c2O)c1 (configuration not stated),"inconclusive: 35.5 µM [inhibitor, single point]"
20,C=CCNC(=S)Nc1ccc(C(N)=O)cc1,"inconclusive: 39.8 µM [inhibitor, single point]"
21,CC(C)c1ccc(Cn2ccc3c4c(N)nc(NC5CC5)nc4ccc32)cc1,"inconclusive: 31.6 µM [inhibitor, partial curve]"
22,O=C(CC1Sc2ccccc2NC1=O)OCc1cc(=O)oc2cc(O)ccc12 (configuration not stated),"inconclusive: 31.6 µM [inhibitor, partial curve]"
23,COc1cc(NC(C)CCCN)c2ncccc2c1 (configuration not stated),"inconclusive: 14.1 µM [inhibitor, partial curve]"
